Results on 56 sequences are retold here after the supplement of paper PMC11417369.

The other results are listed elsewhere or left out.

For the experiment, the system named is PfHDP1 homeodomain (GST-tagged). Put plainly: gcPBM binding intensity (ln(normalized median fluorescence intensity)); higher = stronger DNA binding. The procedure, abridged:
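For binding intensity, the highest Masliner-normalised natural-log median intensity across replicate spots of either probe orientation was taken. Protein bound to the array was stained with Alexa488 anti-GST antibody and scanned at 488 nm. The protein, GST-tagged P. falciparum DNA-binding domains from E. coli at about 25 μg on average, had been applied for 1 h to an Agilent 4 × 180k array of primer-extended double-stranded 36-bp intergenic genomic probes and negative controls.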
In the case of “TATCATGTCTGTATTTCACACACGGATAATCATTTA [CACACA_site920]”, the “gcPBM binding intensity (ln)” value came out at 6.14.
The value for “TAAGTTCACAAAAAAAAAAAAAAATAAAGAAATAAA [CACACA_negctrl_site825]” was 6.06; that for “AAATTATTTCCGTGTACACATAAATATATATTTTAT [CACACA_site5121]” was 7.18; that for “TTATTATGCTGAGTACGTACTTATATAAGAATAGCA [XGTACX_site2955]” was 6.88.
Turning to “TAAAATATTACGTGTACACATAAATAAAAATAAAAA [CACACA_site5066]”, the “gcPBM binding intensity (ln)” value came out at 7.77.
Take “TTTTATATTCCACAAAAAATTATATAATAATAGAAC [CACACA_negctrl_site1741]”: the “gcPBM binding intensity (ln)” value amounted to 6.79.
The value for “ATGCTTTTATAAATAATTAAAAAAAAAAAAAAAAAA [TGCATGCA_negctrl_site533]” was 6.15; that for “CTCAAATAATTTTTTACACACATTATTTGAAATAAG [CACACA_site1290]” was 6.51; that for “TTTTTTTTTAATATTTGTACACAACATGAAACATTT [XGTACX_site473]” was 6.72.
To “GTAATATATACAAAATGTACAAAACAATAACATGAT [XGTACX_site8575]” belongs 6.79; to “ATCCAAACAAATAAAACATGCATAATATATATATAT [TGCATGCA_site766]”, 8.76.
With “ACAAAATATACAAAATGTACAAAATTTACAAAATGT [XGTACX_site3544]”, the “gcPBM binding intensity (ln)” value amounted to 6.25.
Take “AAAAAAAAAAAGCACACACACATATGTGTATTTATA [CACACA_site6578]”: the “gcPBM binding intensity (ln)” value was 6.98.
To “TACTAGCAAATACATACACACACACCCATATACATA [CACACA_site9163]” belongs 7.05; to “AATAGAAAAAAATAAGTGCATTTTGGTATTCATCAT [GTGCAC_site9614]”, 9.01; to “GATATTGAGAAAGGGTGTACAAGATATTATACTATA [XGTACX_site3598]”, 6.47.
To “TTTTATGTAATTATTTGTACATATGCCTCTTAAACT [XGTACX_site748]” belongs 6.18.
To “ACATAAATAATAAAAACACACATATGTACATATATA [CACACA_site1913]” belongs 6.61; to “AAATTTATATTCATTTGTACGTAATTTAAATTATAC [XGTACX_site5870]”, 6.77; to “TATTTAACACCTTATACACACTTTCTTCCTTTTTTA [CACACA_site4590]”, 7.12.
Consider “TATACATATGAAAATACACACATACATACCTATATA [CACACA_site6888]”, for which the “gcPBM binding intensity (ln)” value came out at 6.75.
The value for “TAATTGTACGCCAATACACACAGAATTATAATGTAG [CACACA_site6201]” was 6.86; that for “AAAAAAAAAAAAAACACACACACACCCATACAAAAT [CACACA_site1446]” was 6.83.
To “ATGCACTCATTGTGCACACGCATATTACGAAAAGAA [CACACA_site2638]” belongs 10.8.
The value for “TATATATATATGTGTATACACACCTGATAAAGGTAT [CACACA_site2653]” was 8.96.
As to “AAGATTTGAAAAAATACACACAATAAAAAAATAAAA [CACACA_site3281]”, the “gcPBM binding intensity (ln)” value is 6.76.
To “AATAAATAAAAAACATGTACAAATATAATATAGCAT [XGTACX_site6429]” belongs 7.06.
To “TTTATTTTTTCCAAGTCACACATGTTTTGATATATT [CACACA_site4946]” belongs 6.73.
To “TACTGAAATAATTATTTAAACGTTTTTATATGTATT [CACACA_negctrl_site487]” belongs 6.73.
Consider “GTATATATGTATGTATGTACGTATATAGTTATGTAT [XGTACX_site6769]”, for which the “gcPBM binding intensity (ln)” value came out at 6.69.
Turning to “ATAAAAAAATTAAATACATGCACATATACACATACA [TGCATGCA_site129]”, the “gcPBM binding intensity (ln)” value turned out to be 8.6.
To “TCTTGAATAACAAAAAAATGTGCCAACAAAATAAAT [XGTACX_negctrl_site172]” belongs 6.67.
“TTTGTAAAACTATATTGTACTTTTATATATCTACAA [XGTACX_site5507]”: the “gcPBM binding intensity (ln)” value was 6.38.
To “ACAACTCGGAAGGTTTGTACTTAAAGTATAATTAAG [XGTACX_site737]” belongs 6.29.
The value for “TATATACATGCATATACACACATATATTTATTTATA [CACACA_site6327]” was 6.83; that for “ATACAACGATATATATATATACAAATACATATTTAT [CACACA_negctrl_site268]” was 6.6; that for “GATTTTTTTTTGTGGACACACAGAAATAAATTTATA [CACACA_site327]” was 6.09.
The value for “CACATACAGATATATACACACAAATATATATACTCA [CACACA_site4591]” was 6.66; that for “AAAAAAAATGGATGATCACACACTTCATAAAAATTG [CACACA_site2213]” was 6.14.
With “AATATATTTTTTCACTGTACTTTTATTATATATACA [XGTACX_site8312]”, the “gcPBM binding intensity (ln)” value was determined as 7.
To “ATAATTTTTTGATTTGCATGTAATAAATATATGATA [TGCATGCA_site384]” belongs 6.53; to “TAAATAGATGTTTTATGTACGTATAAATAAAAAAAA [XGTACX_site3412]”, 6.29; to “ATTAAAAATATAGTCACACATACACCCATATATATT [CACACA_site5394]”, 6.63.
With “TTTTTTTAAAGACATGCATGTAATATTTAAATCATT [TGCATGCA_site495]”, the “gcPBM binding intensity (ln)” value came out at 6.44.
To “AGGATACACAGACACACACACATATATATATATATA [CACACA_site907]” belongs 9.23.
Consider “ATGGTAAGTATTTTATGTACATATATATTTATATAA [XGTACX_site4003]”, for which the “gcPBM binding intensity (ln)” value was 6.39.
The value for “ACATATATATAAATATATATATATATATATATATAT [CACACA_negctrl_site874]” was 9.38; that for “AAAAAAAAAAAAAAAAGTACTAATTGAATATTAAAC [XGTACX_site3383]” was 6.53.
The value for “TACACCCATAGACACACACACACGCATAAAAAAAAA [CACACA_site8428]” was 6.85.
The value for “TAATAAAGGTGTAATACACACTATAAAAAGGAATAT [CACACA_site4756]” was 7.28; that for “AAAAAACAAAAAATTACACACATATATAAATATATT [CACACA_site2317]” was 6.04; that for “ATGTGTATATATTATTGTACATATATATATATATAT [XGTACX_site4627]” was 9.24.
Regarding “ACACATATATAAATATGTACATATATATATATACAT [XGTACX_site1595]”, the “gcPBM binding intensity (ln)” value turned out to be 6.4.
The value for “TAATTAAATAAAAAAACACACACATATATACATATA [CACACA_site9141]” was 6.78.
To “TCTATTAATTAATATACACACATTAGATATAAATAT [CACACA_site7241]” belongs 6.7; to “TTTTTCAAATTTAATACACACACAAGTATATATTTA [CACACA_site9307]”, 6.55.
